PMC4336329 (PLoS ONE, 2015)
Hit rate of the full screen: of about 310,000 compounds, about 14,000 (4.5%) showed an effect of 50% or more. Effects have a minus sign here. The list shows a part of the results.

target: human ether-à-go-go-related gene (hERG) potassium channel (human, UniProt Q12809); assay: primary screen, population patch clamp on CHO cells stably expressing hERG
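Further: peak tail current of the secondary pulse compared with the same well before compound.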

Chain of human ether-à-go-go-related gene (hERG) potassium channel (Q12809 whole entry, looked up): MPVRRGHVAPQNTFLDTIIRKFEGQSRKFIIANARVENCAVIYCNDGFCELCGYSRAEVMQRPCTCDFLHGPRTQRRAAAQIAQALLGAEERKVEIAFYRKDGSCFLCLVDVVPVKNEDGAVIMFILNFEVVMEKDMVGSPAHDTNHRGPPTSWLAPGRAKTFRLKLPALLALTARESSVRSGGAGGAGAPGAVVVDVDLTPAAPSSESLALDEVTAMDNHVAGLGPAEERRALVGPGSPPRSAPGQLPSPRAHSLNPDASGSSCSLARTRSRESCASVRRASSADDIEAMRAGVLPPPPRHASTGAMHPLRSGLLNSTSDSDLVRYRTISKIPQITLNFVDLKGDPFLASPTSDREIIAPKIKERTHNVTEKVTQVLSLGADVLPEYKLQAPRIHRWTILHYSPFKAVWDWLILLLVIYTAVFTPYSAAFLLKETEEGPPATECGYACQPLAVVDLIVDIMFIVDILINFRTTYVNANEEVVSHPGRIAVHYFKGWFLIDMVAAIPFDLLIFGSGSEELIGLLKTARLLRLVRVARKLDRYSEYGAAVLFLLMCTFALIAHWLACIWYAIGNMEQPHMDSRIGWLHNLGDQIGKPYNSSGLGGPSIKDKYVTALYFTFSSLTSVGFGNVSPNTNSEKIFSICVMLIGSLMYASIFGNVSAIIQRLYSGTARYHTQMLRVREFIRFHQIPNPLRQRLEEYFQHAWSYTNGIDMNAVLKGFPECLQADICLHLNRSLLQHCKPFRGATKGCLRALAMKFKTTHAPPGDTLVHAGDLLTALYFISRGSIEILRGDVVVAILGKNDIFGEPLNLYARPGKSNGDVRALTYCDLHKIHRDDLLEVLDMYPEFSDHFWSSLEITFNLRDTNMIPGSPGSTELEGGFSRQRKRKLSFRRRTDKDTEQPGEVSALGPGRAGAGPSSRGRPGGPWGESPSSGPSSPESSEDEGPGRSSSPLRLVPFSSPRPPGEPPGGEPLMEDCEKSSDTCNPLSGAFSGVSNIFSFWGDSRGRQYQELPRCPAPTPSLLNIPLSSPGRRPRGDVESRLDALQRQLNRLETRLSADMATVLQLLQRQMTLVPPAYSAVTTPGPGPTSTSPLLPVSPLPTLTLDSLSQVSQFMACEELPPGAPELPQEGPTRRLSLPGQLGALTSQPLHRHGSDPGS

Row | Structure (SMILES) | hERG current change (%, negative = inhibition) at 10uM [%]
1 | CCOC(=O)C1=C(C)NC(=O)NC1 | -3.56
2 | Cc1noc(C)c1COC(=O)CNC(=O)c1cccc(F)c1 | 8.98
3 | CS(=O)(=O)N(CC(=O)N1CCOCC1)c1cc(Cl)ccc1Cl | 7.37
4 | O=C(O/N=C1\CCCc2ccccc21)c1cccc(Cl)c1 | -1.03
5 | CCN(Cc1cnn(C)c1)C(=O)c1cc(COc2ccc(F)cc2F)on1 | -3.7
6 | COc1cc2c(cc1OC)C(=O)Cc1ccc3c(c1CN(C)CC2)OCO3 | -54.1
7 | COc1ccc(C(=O)N/C(=C\c2cn(S(=O)(=O)N(C)C)c3ccccc23)C(=O)N2CCN(C)CC2)cc1 | -50.8
8 | COc1ccc(-c2nc3cnccn3c2Nc2ccc(C)cc2)cc1 | -10.7
9 | COc1cccc(NC(=O)C2CCN(S(C)(=O)=O)CC2)c1 | -7.92
10 | CCn1ccnc1C(O)c1ccc(N(C)C)cc1 (centres unmarked) | 19.4
11 | COc1ccc(N2CCN(c3ncccn3)CC2)cc1 | 5.64
12 | CN(c1ccccc1)S(=O)(=O)c1ccc(C(=O)OCC(=O)NCc2cccs2)cc1 | -9.97
13 | CC(=O)c1c(C)[nH]c(C(=O)Nc2nc(-c3ccccc3)c(C)s2)c1C | -10.2
14 | CS(=O)(=O)c1ccc(C(=O)OCC(=O)NC(=O)Cc2ccccc2)cc1 | -4.76
15 | O=C(CC(Nc1ccc(F)cc1)C(=O)OCC(=O)c1cccs1)c1ccccc1 (centres unmarked) | 2.11
16 | FC(F)(F)c1cccnc1Oc1ccc(C2=NCCS2)cc1 | -5.76
17 | COc1ccc(CNC(=O)C(C)n2nc(C)c3c(C)n(-c4ccccc4)nc3c2=O)c(OC)c1 (centres unmarked) | -8.08
18 | COc1ccc(C2=NC(C)(C)Cc3cc(OC)c(OC)cc32)cc1OC.Cl | -35.7
19 | O=C(CSc1nc2ccccc2n1CC(=O)NCc1ccccc1)NCc1ccco1 | -20.2
20 | O=C(NCCN1CCOCC1)c1ccc(Cl)cc1O | 14.5
21 | O=C(NC(N1CCOCC1)C(Cl)(Cl)Cl)c1ccccc1Cl (centres unmarked) | -0.226
22 | COc1ccccc1NC(=O)CSc1nc2nccnc2c(=O)n1Cc1cccs1 | -69.9
23 | O=C(Cc1csc(-c2ccccc2)n1)NCc1ccco1 | -1.66

Row | Structure (SMILES) | hERG current change (%, negative = inhibition) at 10uM [%]
24 | O=C1c2ccccc2C2=Nc3ccccc3SC(c3ccccc3F)C12 (centres unmarked) | -23
25 | CN(C)c1ccc(NC2=C([N+](=O)[O-])CS(=O)(=O)C2)cc1 | 0.495
26 | O=C(Nc1ccccc1-c1nc2ccccc2s1)c1cccnc1Cl | 8.07
27 | COc1ccc(C(=O)N2CCC(n3nccc3NC(=O)C3CC3)CC2)c(OC)c1OC | 24.7
28 | CC(=O)C1=C(O)C(=O)N(c2ccc(Br)cn2)C1c1ccc(Br)cc1 (centres unmarked) | 11.3
29 | O=C1CCC(C(=O)N(Cc2cccs2)C2(C(=O)NC3CCCCC3)CCCCC2)N1 (centres unmarked) | 9.76
30 | CSc1cccc(NS(=O)(=O)c2ccc3c(c2)CCN3C(C)=O)c1 | 8.02
31 | CS(=O)(=O)N(CC(=O)NCc1ccco1)c1ccccc1Cl | 0.699
32 | Cc1cc(C)c(S(=O)(=O)Nc2ncn[nH]2)cc1C | 42.8
33 | Fc1ccccc1CSc1nnc(Cn2cnc3ccccc32)n1-c1ccccc1 | -30.2
34 | CCOc1cccc2cc(C(=O)N3CC(C)OC(C)C3)c(=O)oc12 (centres unmarked) | 5.99
35 | Cc1ccc(C(=O)CSc2nccn2-c2ccccc2)cc1 | -6.39
36 | COCCNC(=O)c1ccc(-c2csc(C)n2)cc1 | 13.2
37 | CC(C)(C)c1ccc(OCCOc2ccc(C(C)(C)C)cc2NC=O)c(NC=O)c1 | 21.1
38 | Cc1cc(-n2cnc3c(=O)[nH]cnc32)ccc1N | 15
39 | COC(=O)N/N=C/c1cc(Cl)cc(Cl)c1OCc1ccccc1F | 14.4
40 | FC(F)(F)c1cccc(N2Cc3ccccc3C2)c1 | 6.28
41 | CC1=C(CC(=O)O)c2cc(F)ccc2/C1=C/c1ccc(S(C)(=O)=O)cc1 | 11.5
42 | CC1CCC2(CC1)NC(=O)N(CC(=O)c1ccc(CNC(=O)C(C)(C)C)s1)C2=O (centres unmarked) | -10.9
43 | O=C(CSc1nc2ccccc2c(=O)n1CCCN1CCOCC1)Nc1ccc2c(c1)OCO2 | -43.6
44 | O=C(NCc1ccccc1)C1CC(=O)N(c2ccc(OCC(=O)N3CCOCC3)cc2)C1 (centres unmarked) | 14.7
45 | CC(C)N(C(=O)Cn1c(SCC(=O)NCc2ccc3c(c2)OCO3)nc2ccccc21)C(C)C | -34.1
46 | Cc1c(N2C(=O)CSC2c2ccco2)c(=O)n(-c2ccccc2)n1C (centres unmarked) | 0.106

Row | Structure (SMILES) | hERG current change (%, negative = inhibition) at 10uM [%]
47 | OCC1N=C(c2ccccn2)OC1c1ccccc1 (centres unmarked) | 13.6
48 | COc1cccc(Cn2c(=O)ccc3ccccc32)c1 | 5.15
49 | COc1ccc(NC(=O)c2ccc3c(c2)C(=O)N(Cc2cccnc2)C3=O)c(OC)c1 | -11.1
50 | O=C(N/N=C/c1ccc(OCc2ccccc2)cc1)c1ccc(O)cc1 | 22.4
51 | CC(=O)C1=C(C)NC(SCC(N)=O)=C(C#N)C1CC(C)C (centres unmarked) | 14.5
52 | COCCNC(=O)Cn1nc(C(F)(F)F)cc1C | -9.01
53 | Cc1nc(Nc2nc3c(c(=O)[nH]2)CCC3)nc2ccccc12 | -10.2
54 | COC(=O)Cc1ccc(Oc2ncc(C(F)(F)F)cc2Cl)cc1 | 12.3
55 | COc1cccc(/C=N/Nc2nc(C)cc(=O)[nH]2)c1OC | 13.5
56 | CCCCCC(=O)Nc1ccccc1N1CCOCC1 | -20.8
57 | CN(C)c1ccc(P(=O)(OC2CCCCC2)C(Nc2ccccc2)c2cccnc2)cc1 (centres unmarked) | -9.86
58 | O=[N+]([O-])c1ccc(/C=N/NC(=S)Nc2ccccc2F)o1 | 7.94
59 | N#Cc1cc(-c2ccccc2)c[nH]c1=O | 9.27
60 | CC(C)(CO)CNC(=O)CCc1nnc(Cc2ccc(-c3ccccc3)cc2)o1 | -1.98
61 | O=C(CN1C(=O)NC(c2ccccc2)(c2ccccc2)C1=O)NCCNCCO | 24.1
62 | O=C(COC(=O)C1CCC1)Nc1cccc(Cl)c1 | -3.08
63 | Cc1ccc(N(Cc2ccc(C(=O)Nc3ccccc3C(=O)NCc3ccco3)cc2)S(C)(=O)=O)cc1C | 9.61
64 | CCn1ccnc1CNC(=O)CC1C(=O)NCCN1CCCc1ccccc1 (centres unmarked) | 15.2
65 | Cn1cc(C(=O)NCc2ccc(Cl)cc2)c(=O)c2cc(S(=O)(=O)N3CCOCC3)ccc21 | 17.8
66 | CCc1cc(=O)oc2cc(OCC(=O)N3C[C@H]4C[C@@H](C3)c3cccc(=O)n3C4)ccc12 | 8.87
67 | CCOCCn1c(N(C)Cc2ccccc2)nc2c1c(=O)[nH]c(=O)n2C | -7.27
68 | CCOC(=O)N/N=C/c1ccccc1OCc1ccc(Cl)cc1 | 31.3
69 | Cc1cc(C(C)(C)C)oc1C(=O)O | 27.6

Row | Structure (SMILES) | hERG current change (%, negative = inhibition) at 10uM [%]
70 | CC(=O)C1=C(O)C(=O)N(Cc2ccco2)C1c1ccc2c(c1)OCO2 (centres unmarked) | 1.14
71 | O=C(NNc1nc2ccc(F)cc2s1)c1cccc(F)c1 | 40.4
72 | O=C(COC(=O)C12CC3CC(CC(O)(C3)C1)C2)N1CCN(S(=O)(=O)c2ccc(Cl)cc2)CC1 | 5.85
73 | CCc1nc2ccccc2nc1N1CCN(S(=O)(=O)c2ccc(Cl)cc2)CC1 | 9.99
74 | C=CCn1c(=O)c(C(=O)NC(C)c2ccccc2)c(O)c2ccccc21 (centres unmarked) | 18.3
75 | c1ccc(CSc2nnc(-c3ccccn3)n2-c2ccccc2)cc1 | -10.6
76 | CSCCC(NC(=O)c1ccccc1Br)C(=O)N1CCCC(C(F)(F)F)C1 (centres unmarked) | -22.3
77 | Cn1nccc1C(=O)N/N=C/c1c(O)ccc2ccccc12 | 10.6
78 | CCC(C)(O)c1[nH]c2ccc(C#N)cc2c1C (centres unmarked) | 2.68
79 | O=C(COC(=O)/C=C/c1ccco1)Nc1ccccc1 | 2.85
80 | CCc1ccc(S(=O)(=O)Nc2ccc(O)c3ccccc23)cc1 | -5.31
81 | O=[N+]([O-])c1ccc(-c2ccc(/C=N/Nc3nc(N4CCCC4)nc(N4CCCC4)n3)o2)cc1 | 14
82 | O=C(/C=C/c1cccc(F)c1)NCc1ccc2c(c1)OCO2 | 16.4
83 | COCCn1c(C)cc(C(=O)COC(=O)c2n[nH]c3ccccc23)c1C | -12
84 | O=C(NCc1cccnc1)c1ccc(Cl)c(S(=O)(=O)N2CCOCC2)c1 | -6.78
85 | COc1ccccc1Oc1ccc2c(c1)C(=O)N(c1ccc(C)cc1)C2=O | 10.8
86 | CCC(CC)c1nn2c(N)c(/C=C3\C(C)=Nc4ccccc43)c(=O)nc2s1 | 14
87 | CCCCn1nc(C(=O)Nc2ccc(-n3cnnn3)cc2)c2ccccc2c1=O | -11.5
88 | CCn1c2ccccc2c2nnc(SCC(=O)NCCOC)nc21 | -1.54
89 | COc1cccc(C(=O)Nc2ccc(Oc3cccc(C(F)(F)F)c3)nc2)c1 | 6.22
